# Measurements reported in publication PMC7044329.
# Results are given in words; binding and its absence hold for the method and conditions named. Binding seen in cells or lysates may run through a third protein. Sequences can lack the tags named with a protein.
# T1: FLAG-tagged CBP20 (recombinant) (UniProt P52298)
# T1 sequence: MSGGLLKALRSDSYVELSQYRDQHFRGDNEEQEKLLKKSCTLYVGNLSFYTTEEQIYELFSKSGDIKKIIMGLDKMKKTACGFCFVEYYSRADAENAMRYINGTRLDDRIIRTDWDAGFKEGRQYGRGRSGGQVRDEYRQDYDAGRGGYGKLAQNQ
# Legend:
# [1] = biological target: T1, FLAG-tagged CBP20 (recombinant); assay: pull-down; in vitro binding assay with baculovirally expressed FLAG-tagged SLBP, CBP80, CBP20 and HA-tagged ICE1-NL (1-1190); which was held is not told
# [2] = biological target: FLAG-tagged SLBP (recombinant) (UniProt Q14493); assay: as above
binder,measurement,setting,value
"HA-tagged N-terminal fragment of ICE1 (NL: 1-1190) (domain or fragment, UniProt Q9Y2F5 1-1190) MMPGETHSAAPGTAADLSRCQGCASLQQNLNEYVEALITLKQKIINTDNLLTEYQKKCDELQFARRENSNLHHQVEEMLQKISPLQKCQEELGSLKAELEEKKSSLKLYQDTHQEYARVKEECLKSDAQKKKLEAKVKKLQEAAVKQTQDFKQLRNEKKILEKEFKKTQERLDEFSKQKNEKELRHIGTQISSDSYGSIDKRKVKLLLKELWLCVNTTHRLPGEGSRCVPEKPAKAITSSRVPGEDGTLPPTQGSPLRTSNVQTCLTKLSMEIKEDFLCQNVEKQSSSGTNCSSDHVFNENGNLEVLVQSHRDGGSTEFVDHDHFFDEDLQAAIDFFKLPPPLLSPVPSPPPMSSPHPGSLPSSFAPETYFGEYTDSSDNDSVQLRNSAECVSEDDTTESQNYFGSLRKNKGSGTWEEKPKSHEAIQALNTWEVNKVTTSGLETFTATLRESSATHSLVGEKHWTTASRSMSDRKRDILHETKTQMEVREMDKSVQTEKTIHKLTRGLCIERLSASPAQEKEAAPGKSELCSSPLGKRPLNELMESEGKTVLSKMMGSPKSEFTKWTRINEITSEPDRITVSGHFHRLSRELEKEKEDTQGFTLGESPESEDDDSGDGMDVAGLDIETSFSSSSTLVALSVGSNPQSSSGLDCGNDTDITTKVFSTEPHHSEHKLQTKTLNTLHLQSEPPECSIGGNNLENSLCALSPELGASNFNDQKSSGIEYTKVVKGLTKIHSLPRSVFMKATKDGQCESQDPRIELTLNKPDFTSLIGSQAALIKSGLGFVKSTSWHHSDLLRKGGEESLRAKSEHEQKTSHQLQKAMPFLQNRGPTPKPDLLRENNNPVEFKTTASVLPNQVSVITKQTRPEKVQSAKLEHLRPHRVEPTLVTENSGNKTGMSTVAKCDGERDDTTQNITEVAAVKSISPEVSASRRKLDFNSPGGSSPVENSDCSTNSRLSFSPENILIQNQDIVREAAVQGDGQKQRQPQATDLDSSGTHGSEMLPATEVTVSGGFSVEETSCGDTGRSGGEALAVANDSTSTPQNANGLWKLKSTTPGGALPECFGTTDTTFSSAFCRKHGETQDTSQSSLPGTLHCYTGIREGGDDTEVESEAFSCSEGSEQQDAPDDSQKNLGDTDAAVAEVRPSLEVGYLTSALQDFNISTFSELDRLSTSEVVMFLESCQLGDYSSG",binding,[1],no binding
same,binding,[2],no binding
